# Measured values as given in the supplement of paper PMC3334620.
# In all, about 33,000 sequences were measured (“E-score (-0.5 to 0.5)”: median about -0.043, highest 2% from about 0.37 on). The list shows a part of the results.
# Molecular target: T1, Upc2 (UniProt Q12151)
# T1 sequence: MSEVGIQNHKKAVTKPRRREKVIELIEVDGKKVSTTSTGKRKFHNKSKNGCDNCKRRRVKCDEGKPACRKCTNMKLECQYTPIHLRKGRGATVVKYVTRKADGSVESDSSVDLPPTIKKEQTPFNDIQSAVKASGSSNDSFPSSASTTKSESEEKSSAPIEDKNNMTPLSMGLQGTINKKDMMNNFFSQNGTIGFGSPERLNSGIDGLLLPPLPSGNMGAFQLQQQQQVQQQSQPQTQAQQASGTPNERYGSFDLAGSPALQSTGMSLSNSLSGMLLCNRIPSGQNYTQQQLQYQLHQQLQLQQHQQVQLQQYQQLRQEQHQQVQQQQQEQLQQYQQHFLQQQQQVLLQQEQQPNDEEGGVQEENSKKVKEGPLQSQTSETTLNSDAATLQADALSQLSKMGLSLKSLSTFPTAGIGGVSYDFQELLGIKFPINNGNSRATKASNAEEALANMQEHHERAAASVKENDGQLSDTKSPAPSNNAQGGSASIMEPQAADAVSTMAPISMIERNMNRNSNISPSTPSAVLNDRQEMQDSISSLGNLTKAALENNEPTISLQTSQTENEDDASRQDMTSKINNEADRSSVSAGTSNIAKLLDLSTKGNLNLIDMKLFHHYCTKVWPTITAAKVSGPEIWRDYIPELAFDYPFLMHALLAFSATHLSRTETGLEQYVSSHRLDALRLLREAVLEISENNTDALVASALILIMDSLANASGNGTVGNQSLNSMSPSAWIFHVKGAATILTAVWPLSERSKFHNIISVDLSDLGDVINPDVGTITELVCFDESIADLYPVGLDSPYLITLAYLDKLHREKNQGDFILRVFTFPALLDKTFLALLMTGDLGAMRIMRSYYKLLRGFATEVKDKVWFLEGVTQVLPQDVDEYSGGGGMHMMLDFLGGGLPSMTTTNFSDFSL
# Assay: PBM E-score (8-mer binding enrichment) (E-score (-0.5 to 0.5)); higher = stronger / more preferred TF binding; most listed sequences are background and not binding sites
# Details: protein concentration: 200 nM; construct: GST-full length
# Method in brief: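 Yeast transcription factors carrying a GST tag, as full-length proteins or DNA-binding domains, were produced by PURExpress in vitro transcription/translation. About 100-200 nM protein was applied to universal all-10-mer Agilent arrays, double-stranded by primer extension on fresh or once-stripped slides. Bound protein was detected with fluorescent anti-GST, and scans were normalised with masliner. The Universal PBM Analysis Suite gave each ungapped eight-base word, pooled with its reverse complement, an E-score, a modified Wilcoxon-Mann-Whitney statistic.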
row,Sequence,PBM E-score
1,ACTCGTAC,0.472
2,GGCTAACA,0.0623
3,ATACCGAC,0.194
4,CCAACTGG,-0.0518
5,ATTAACTA,-0.0133
6,AAATATAC,0.204
7,CGACCAAA,0.261
8,CGTATGGA,0.423
9,AACTAGTT,0.0327
10,GTTCTCCA,-0.109
11,TAGGTGGA,-0.209
12,CCATATAG,-0.0573
13,GGATCATA,-0.223
14,AAAGCTGC,-0.0267
15,ACCGGGCA,-0.185
16,ATGCCTCG,0.162
17,CATAAGAG,0.00546
18,AGAAGCTC,0.0431
19,AACGGTGG,0.241
20,AGAGAGGG,-0.245
21,CATGCAGC,-0.133
22,GGAGTGCC,-0.101
23,GCCCGACA,-0.215
24,ACGATGAC,0.286
25,CGCGTCCG,-0.082

row,Sequence,PBM E-score
1,AACCGATG,0.153
2,ATCTTCCC,-0.0334
3,CCAAGATC,0.101
4,GTCAATCA,-0.13
5,AAATGTCT,-0.00329
6,AATGAGCC,-0.26
7,CGCTCGTC,0.127
8,ACTGCACG,-0.16
9,GTTCTAAA,0.0629
10,CGGAGTTA,-0.13
11,TCGAGGAA,0.049
12,CCCCGAGA,-0.241
13,AACACTTG,0.0323
14,GCCTACAA,-0.203
15,ACGTTTCC,-0.0121
16,CGTCCGCA,-0.13
17,GATGATTA,-0.0046
18,CGCTCCAA,0.11
19,ACGTTGAC,0.137
20,CAAGGCGG,-0.117
21,AGAAGCTA,-0.0305
22,ATACCCAA,-0.0213
23,AATGGCAC,-0.345
24,GTCCCCAA,-0.0271
25,GCAGGTAA,0.0476

row,Sequence,PBM E-score
1,AATGCGCG,0.0483
2,GTGGTAGA,-0.172
3,CTCGCGCA,0.115
4,ACACGCCT,-0.156
5,ATCTGCTA,-0.0459
6,AATGACCG,-0.0692
7,CCGTCGAC,-0.137
8,GCTGATAC,0.102
9,CCCCAGGA,-0.29
10,CGACCCCC,-0.0479
11,GAGGTCAC,-0.187
12,ACCGGTGG,-0.139
13,CCACAGAC,-0.169
14,GGACTCAC,-0.17
15,TAATCACA,-0.221
16,ACGAAAGC,0.32
17,ATGAACCG,0.0683
18,ACCTTAAG,-0.00109
19,CCCCGAAA,-0.13
20,AATCGTCG,0.118
21,CATATAGA,-0.0729
22,ATCTGGTG,-0.254
23,ATGCCCAA,-0.0832
24,ACGCGATC,0.232
25,AGTCTGAT,-0.163

row,Sequence,PBM E-score
1,CGAGGACA,0.0681
2,GAGACACC,-0.0586
3,GCCGATGA,-0.244
4,GGCTTCAC,-0.233
5,AAGTGTGT,0.0069
6,GGAAAGGA,-0.187
7,GACCTAAC,0.118
8,AACGCCGG,0.00342
9,CTTCTCGA,-0.187
10,ACTGTGTG,-0.182
11,AACCTAGT,-0.181
12,ATTTTTAC,0.19
13,CGTCTATA,0.0202
14,ACAGTAGT,0.029
15,GCGTAGAA,0.0848
16,CACGACCC,-0.102
17,CCGTCAGA,-0.167
18,CCGCCGGC,-0.23
19,CTTTCCCC,-0.213
20,ACTGAAAC,0.171
21,ACACAAAA,0.024
22,ATGTTGTA,0.0483
23,AGCTGCTG,-0.0358
24,CTCCCAGA,-0.147
25,GCCATGGC,-0.412

row,Sequence,PBM E-score
1,ACAGAAGC,-0.126
2,AGCACCCA,-0.02
3,ATACGAAC,0.472
4,GAGGGGGA,-0.0209
5,AGTTCCTA,0.101
6,ATCATGTG,-0.238
7,AACTTAGT,-0.0639
8,ATAATGCG,0.153
9,GGCTCCCC,-0.136
10,CGGGATAC,0.18
11,ACTGATCG,-0.0553
12,GCCTGGGA,-0.254
13,AAACTACA,-0.0707
14,ACGGCAGA,0.186
15,CATCGAAC,0.135
16,ACCCACCT,-0.21
17,AGTCGAAT,-0.164
18,AACCGTTC,0.271
19,AGGTGGGC,-0.168
20,CCTGTCAC,-0.0431
21,TATAACAA,0.0591
22,ATTTCGTC,0.0429
23,CCCGAGGG,0.0883
24,GTGAAGTA,-0.0282
25,AATGAGAA,-0.119

row,Sequence,PBM E-score
1,CCTGTACC,-0.0294
2,CCGACAAC,0.124
3,CGTCACAG,-0.0583
4,ACGCACAC,0.147
5,AGTGTGAT,0.118
6,ATAAGCGA,0.347
7,ATTGCACA,0.0659
8,CGCACGAC,0.0333
9,CGGGGAGC,0.00537
10,GAGAAGTA,-0.0971
11,CCTCCGAA,-0.136
12,GAACAGGC,-0.0321
13,AATAGCGA,0.112
14,AAACCACT,-0.0194
15,GCCCGGAC,-0.125
16,CTGATTGA,-0.097
17,ACTCGCTA,0.158
18,AATACCTG,-0.0757
19,AATAGGTC,0.00213
20,ACCGATTA,0.183
21,ATTCCCAC,-0.232
22,AATGAGGC,-0.0974
23,GCAATCAC,-0.041
24,TAGGCAAA,-0.108
25,AAAGGCGG,0.00912

row,Sequence,PBM E-score
1,GCACTTCC,-0.358
2,GCACGGTA,-0.0712
3,CTGACTCC,-0.169
4,CTCTTAAC,0.165
5,ACGAGAAC,0.375
6,ACATTTAA,-0.0133
7,ATGTACGC,0.187
8,GCCCGCAC,-0.0934
9,ACGATATG,0.34
10,TACTATAA,0.0792
11,CAGCAACC,-0.116
12,AACGATGA,0.387
13,ACCCATAT,0.155
14,GTTTACGA,0.471
15,ACTCGGAG,-0.107
16,CAGGCGCG,-0.171
17,CCGCTCCG,0.0393
18,CGAGAGCG,0.227
19,TATCAAGA,-0.0271
20,AACGCTTG,0.00299
21,ACCTGATC,0.0575
22,TGTATAAA,0.156
